A lower IC50 marks a more sensitive line; a limit (>, <) means that the fit lies beyond the doses tested. The AUC spans the tested range (256-fold, ending at the top dose) of the same fit; it is 1 without any effect and falls as sensitivity rises. For some of these results: The top dose, if marked as inferred, is not printed in the source and was worked back from the curve model. For some of these results: Drugs with an entry number were screened twice under separate entries, and the two screens often disagree.
Columns and labels:
Test in all cases: Viability of human cancer cell lines after 72 h of drug (GDSC screen)
PI-103 = compound: Oc1cccc(-c2nc(N3CCOCC3)c3oc4ncccc4c3n2)c1 [PI-103]; settings: top dose 10.24 µM
Description: (§1)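 Human cancer cell lines in 384-well plates, medium with 10% serum, drug for 72 h over a 256-fold dose range (nine 2-fold or five 4-fold steps up to the top dose). Adherent lines were fixed and stained with the nucleic acid dye Syto60, suspension lines read with resazurin; signal relative to control wells, capped at 0 and 100%. One two-parameter sigmoid per drug and line, fitted in a mixed model over all curves with the slope shared within a line.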

UNC0638 = compound: COc1cc2c(NC3CCN(C(C)C)CC3)nc(C3CCCCC3)nc2cc1OCCCN1CCCC1 [UNC0638]
Description: as §1

SB-505124 = compound: Cc1cccc(-c2[nH]c(C(C)(C)C)nc2-c2ccc3c(c2)OCO3)n1 [SB-505124]; settings: top dose 10 µM; top dose inferred
Description: as §1

GSK690693 = compound: CCn1c(-c2nonc2N)nc2c(C#CC(C)(C)O)ncc(OC[C@H]3CCCNC3)c21 [GSK690693]; settings: top dose 10.24 µM; top dose inferred
Description: as §1

BX-795 = compound: O=C(NCCCNc1nc(Nc2cccc(NC(=O)N3CCCC3)c2)ncc1I)c1cccs1 [BX-795]; settings: top dose 5 µM; top dose inferred
Description: as §1

Tretinoin = compound: CC1=C(/C=C/C(C)=C/C=C/C(C)=C/C(=O)O)C(C)(C)CCC1 [Tretinoin]; settings: top dose 10 µM; top dose inferred
Description: as §1

[1] = top dose 20 µM, screen: GDSC drug entry 1236, top dose inferred
[2] = top dose 40 µM, screen: GDSC drug entry 245

Row | Cell Line | AUC (PI-103) | IC50 (PI-103) [µM] | AUC (UNC0638; [1]) | IC50 (UNC0638; [1]) [µM] | AUC (UNC0638; [2]) | IC50 (UNC0638; [2]) [µM] | AUC (SB-505124) | IC50 (SB-505124) [µM] | AUC (GSK690693) | IC50 (GSK690693) [µM] | AUC (BX-795) | IC50 (BX-795) [µM] | AUC (Tretinoin) | IC50 (Tretinoin) [µM]
1 | SNU-407 (large intestine, adherent) | 0.88 | > 10.2 | 0.929 | > 20 | 0.908 | > 40 | 0.979 | > 10 | 0.847 | 9.52 | 0.828 | 3.81 | 0.983 | > 10
2 | SNU-423 (liver, adherent) | 0.226 | 0.0867 | 0.685 | 4.53 | 0.672 | 8.25 | 0.959 | > 10 | 0.801 | 6 | 0.862 | > 5 | 0.951 | > 10
3 | SNU-449 (liver, adherent) | 0.354 | 0.242 | 0.82 | 12.9 | 0.923 | > 40 | 0.985 | > 10 | 0.986 | > 10.2 | 0.896 | > 5 | 0.976 | > 10
4 | SNU-C5 (large intestine, adherent) | 0.735 | 3.25 | 0.938 | > 20 | 0.979 | > 40 | 0.984 | > 10 | 0.969 | > 10.2 | 0.903 | > 5 | 0.986 | > 10
5 | SU8686 (pancreas, adherent) | 0.908 | > 10.2 | 0.84 | 16.3 | 0.821 | 26.9 | 0.984 | > 10 | 0.966 | > 10.2 | 0.959 | > 5 | 0.985 | > 10
6 | SU-DHL-5 (B-cell lymphoma, suspension) | 0.096 | 0.054 | 0.647 | 2.86 | 0.411 | 1.52 | 0.946 | > 10 | 0.116 | 0.0636 | 0.679 | 0.855 | 0.979 | > 10
7 | SUIT-2 (pancreas, adherent) | 0.984 | > 10.2 | 0.842 | 15.1 | 0.647 | 6.54 | 0.985 | > 10 | 0.976 | > 10.2 | 0.896 | > 5 | 0.981 | > 10
8 | SW13 (adrenal gland, adherent) | 0.959 | > 10.2 | 0.85 | 15.4 | 0.977 | > 40 | 0.898 | > 10 | 0.988 | > 10.2 | 0.953 | > 5 | 0.909 | > 10
9 | SW48 (large intestine, adherent) | 0.844 | 7.27 | 0.947 | > 20 | 0.843 | 28.2 | 0.981 | > 10 | 0.987 | > 10.2 | 0.78 | 2.05 | 0.984 | > 10
10 | SW620 (large intestine, adherent) | 0.68 | 1.9 | 0.978 | > 20 | 0.808 | 17.8 | 0.975 | > 10 | 0.977 | > 10.2 | 0.889 | 4.55 | 0.99 | > 10
11 | SW626 (ovary, adherent) | 0.429 | 0.394 | 0.924 | > 20 | 0.785 | 20.7 | 0.932 | > 10 | 0.932 | > 10.2 | 0.947 | > 5 | 0.984 | > 10
12 | SW756 (cervix, adherent) | 0.945 | > 10.2 | 0.983 | > 20 | 0.966 | > 40 | 0.975 | > 10 | 0.984 | > 10.2 | 0.932 | > 5 | 0.985 | > 10
13 | SW780 (bladder, adherent) | 0.986 | > 10.2 | 0.795 | 10.3 | 0.864 | > 40 | 0.984 | > 10 | 0.986 | > 10.2 | 0.833 | 3.63 | 0.964 | > 10
14 | SW948 (large intestine, adherent) | 0.974 | > 10.2 | 0.98 | > 20 | 0.877 | > 40 | 0.98 | > 10 | 0.881 | > 10.2 | 0.939 | > 5 | 0.964 | > 10
15 | SW1271 (small cell lung carcinoma, adherent) | 0.767 | 4.36 | 0.862 | > 20 | 0.697 | 9.79 | 0.979 | > 10 | 0.984 | > 10.2 | 0.835 | 4.03 | 0.984 | > 10
16 | SW1417 (large intestine, adherent) | 0.812 | 6.7 | 0.984 | > 20 | 0.884 | > 40 | 0.985 | > 10 | 0.983 | > 10.2 | 0.986 | > 5 | 0.979 | > 10
17 | SW1573 (lung adenocarcinoma, adherent) | 0.883 | > 10.2 | 0.859 | > 20 | 0.899 | > 40 | 0.961 | > 10 | 0.964 | > 10.2 | 0.902 | > 5 | 0.896 | > 10
